From the supplement of paper PMC7826260
This is one part of the list. Each Rep nickase domain was tested in vitro on the same pool of single strands (1 h at 37 °C, 3 µM enzyme); the outer parts of the 90-letter strands are left off. The score is log2 (uncut reads / reads without enzyme); strong cutting gives strongly negative numbers. There is no active / inactive call. Reads are scaled to the total; values above 0 arise when much of the pool is cut.

How the values were obtained:
Test in all cases: uncleaved DNA left, log2 of reads against the no-enzyme library (log2 ratio); higher = less cleavage (more negative = more Rep cleavage of the k-mer); sequences stand for … in CTCGTCCG…ACCGGAGA
[1] = tested on: T1, Rep nickase domain of Muscovy duck circovirus
T1 sequence (protein, residues 1-111, tag omitted): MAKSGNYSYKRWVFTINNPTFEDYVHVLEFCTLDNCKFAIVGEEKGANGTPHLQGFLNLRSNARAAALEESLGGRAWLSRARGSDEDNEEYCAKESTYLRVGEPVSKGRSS
Procedure: (§1)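 A pool of 90-nt single-stranded DNAs with seven random bases just before the constant AC of the nick site (name = the seven bases) was cut by 3 µM recombinant His6-SUMO-tagged Rep nickase domain (300 nM DNA, 50 mM HEPES pH 8.0, 50 mM NaCl, 1 mM MnCl2, 1 h, 37 °C, three replicates). Uncut DNA was amplified and sequenced.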

[2] = tested on: T2, Rep nickase domain of banana bunchy top virus
T2 sequence (protein, residues 1-94, tag omitted): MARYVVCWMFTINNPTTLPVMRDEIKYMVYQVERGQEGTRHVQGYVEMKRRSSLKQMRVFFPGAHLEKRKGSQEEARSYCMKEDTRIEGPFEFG
Procedure: as §1

[3] = tested on: T3, Rep nickase domain of cabbage leaf curl virus
T3 sequence (protein, residues 1-116, tag omitted): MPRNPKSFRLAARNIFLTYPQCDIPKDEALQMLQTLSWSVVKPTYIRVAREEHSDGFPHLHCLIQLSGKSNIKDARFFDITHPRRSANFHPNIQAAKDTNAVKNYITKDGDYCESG
Procedure: as §1

[4] = tested on: T4, Rep nickase domain of chickpea chlorotic dwarf virus
T4 sequence (protein, residues 1-124, tag omitted): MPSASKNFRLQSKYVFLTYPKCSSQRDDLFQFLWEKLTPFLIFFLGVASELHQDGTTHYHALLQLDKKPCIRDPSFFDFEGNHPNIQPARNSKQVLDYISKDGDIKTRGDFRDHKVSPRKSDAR
Procedure: as §1

[5] = tested on: T5, Rep nickase domain of faba bean necrotic yellows virus
T5 sequence (protein, residues 1-98, tag omitted): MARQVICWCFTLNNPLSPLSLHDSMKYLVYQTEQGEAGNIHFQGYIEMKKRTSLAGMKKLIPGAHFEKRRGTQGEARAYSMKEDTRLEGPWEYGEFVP
Procedure: as §1

[6] = tested on: T6, Rep nickase domain of maize striate mosaic virus
T6 sequence (protein, residues 1-117, tag omitted): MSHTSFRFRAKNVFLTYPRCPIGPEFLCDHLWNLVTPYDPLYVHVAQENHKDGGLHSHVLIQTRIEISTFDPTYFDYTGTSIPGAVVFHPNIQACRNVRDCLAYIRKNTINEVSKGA
Procedure: as §1

[7] = tested on: T7, Rep nickase domain of porcine circovirus 2
T7 sequence (protein, residues 2-116, tag omitted): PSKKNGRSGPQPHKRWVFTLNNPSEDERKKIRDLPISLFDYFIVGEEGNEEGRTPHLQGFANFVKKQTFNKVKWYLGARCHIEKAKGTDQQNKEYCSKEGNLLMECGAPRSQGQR
Procedure: as §1

[8] = tested on: T8, Rep nickase domain of tomato yellow leaf curl virus
T8 sequence (protein, residues 1-136, tag omitted): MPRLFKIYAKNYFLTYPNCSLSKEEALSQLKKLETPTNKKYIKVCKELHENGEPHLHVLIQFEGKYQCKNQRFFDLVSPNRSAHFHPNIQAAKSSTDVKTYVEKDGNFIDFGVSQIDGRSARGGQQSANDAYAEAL
Procedure: as §1

[9] = tested on: T9, Rep nickase domain of wheat dwarf virus
T9 sequence (protein, residues 1-137, tag omitted): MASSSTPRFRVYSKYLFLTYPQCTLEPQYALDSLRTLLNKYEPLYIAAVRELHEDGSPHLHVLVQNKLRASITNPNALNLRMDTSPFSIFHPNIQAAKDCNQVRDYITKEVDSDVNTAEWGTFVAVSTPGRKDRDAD
Procedure: as §1

Sequence | uncleaved DNA left (log2) [1] | uncleaved DNA left (log2) [2] | uncleaved DNA left (log2) [3] | uncleaved DNA left (log2) [4] | uncleaved DNA left (log2) [5] | uncleaved DNA left (log2) [6] | uncleaved DNA left (log2) [7] | uncleaved DNA left (log2) [8] | uncleaved DNA left (log2) [9]
TCTAGAA | 0.132 | -0.00242 | 0.224 | -0.0317 | -0.0155 | -0.271 | 0.0992 | -0.000635 | -0.0462
ATACGTT | 0.0273 | -0.148 | -1.24 | -2.75 | -0.0258 | -0.933 | -0.374 | -0.219 | -0.6
AATACCG | -0.0666 | 0.00867 | -0.878 | -0.716 | 0.0767 | -1.05 | 0.0306 | -0.0497 | -0.104
AAGTGAA | 0.00908 | 0.0338 | 0.16 | 0.826 | 0.035 | 1.24 | -2.64 | -0.0918 | 0.0454
CGCTAAG | 0.0243 | 0.016 | -0.723 | -0.555 | -0.00824 | -0.894 | 0.107 | -0.0553 | -0.147
ATTGTAG | 0.00751 | 0.0698 | -0.764 | -0.0713 | -0.0557 | -1.07 | 0.0638 | 0.0635 | -0.147
ATGCGTT | 0.103 | 0.0192 | -0.688 | -0.96 | 0.0193 | -1.1 | -0.0409 | -0.0326 | -0.141
GAGGGAC | -0.00254 | 0.0588 | 0.728 | 1.85 | -0.0785 | 2.14 | 0.262 | 0.108 | 0.159
CTAGAGA | 0.056 | -0.0116 | 0.247 | 0.45 | 0.0017 | -0.584 | 0.0333 | -0.151 | -0.0174
AACATCA | -0.0164 | 0.0785 | -0.0413 | -1.81 | -0.0294 | -0.435 | -0.0638 | 0.0686 | 0.0634
TGGTAAC | 0.101 | 0.0537 | 0.394 | 0.765 | -0.208 | 1.75 | 0.106 | 0.062 | 0.112
GTATCCT | -0.0745 | 0.138 | 0.504 | 1.12 | 0.0366 | 1.94 | 0.0702 | 0.141 | 0.111
ATTTTCG | 0.0704 | 0.0698 | -0.878 | -0.185 | 0.0957 | -1.03 | 0.102 | -0.0041 | -0.0927
CGGTGGC | 0.119 | 0.00628 | 0.159 | 0.319 | 0.0522 | 0.0258 | 0.175 | -0.085 | 0.00724
CGTATCC | -0.0283 | 0.0659 | 0.0706 | 0.15 | -0.0538 | -0.151 | -0.0336 | -0.0276 | 0.0693
CACATGT | -0.0581 | -0.0348 | -0.265 | -0.985 | -0.0533 | -0.975 | -0.266 | -0.0221 | -0.0723
TTAAGGT | 0.0274 | 0.0388 | -0.652 | -1.93 | 0.114 | 1.66 | 0.0689 | -0.0553 | -0.0276
TCCCAGC | 0.0234 | -0.0776 | -0.226 | -0.565 | -0.0115 | -0.845 | -0.00979 | -0.187 | -0.181
GGAGGCA | -0.0341 | 0.0416 | 0.771 | 1.74 | -0.0795 | 2.06 | 0.141 | -0.115 | -0.0219
ATCATGG | 0.0857 | 0.00297 | -0.362 | -0.262 | 0.00315 | -1.09 | 0.149 | -0.0224 | -0.0412
CGCGATG | -0.0243 | 0.0136 | -0.145 | 0.48 | -0.0888 | 1.44 | -0.0659 | -0.154 | -0.0852
TATGGCG | -0.0467 | 0.0356 | -0.509 | 0.779 | -0.0313 | -0.132 | 0.0284 | 0.0308 | -0.181
CACCTGC | -0.217 | -0.0226 | -0.543 | -0.569 | -0.00921 | -0.852 | -0.139 | 0.116 | 0.106
AACACTC | -0.0394 | -0.0805 | -0.0751 | -0.748 | -0.0191 | -0.735 | 0.0285 | -0.0834 | 0.0235
GTATTAT | -0.0995 | 0.0132 | 0.321 | 0.848 | -0.0763 | 1.78 | -0.015 | 0.0697 | 0.162
TGTCGTG | -0.145 | -0.131 | -0.705 | -0.895 | -0.0902 | -1.04 | -0.0995 | -0.0856 | -0.283
ATCCTAA | 0.142 | 0.0542 | -0.0205 | -0.239 | 0.0569 | -0.711 | 0.0242 | 0.18 | -0.00669
CCGATTC | 0.0973 | 0.00545 | 0.0825 | -0.104 | 0.0941 | -0.467 | 0.0353 | 0.0159 | -0.0072
TACAATA | 0.0406 | 0.0318 | -0.322 | -2.67 | 0.0593 | -0.576 | -0.059 | -0.033 | 0.00326
ATCGACA | -0.079 | -0.0411 | -0.125 | -0.104 | -0.0968 | 0.494 | -0.111 | 0.079 | 0.00178
